Laboratory results taken from PMC4336329 (PLoS ONE, 2015).
The whole screen tested about 310,000 compounds, of which about 2,200 (0.71%) showed an effect of 50% or more. Effects have a minus sign here. This is one part of the list.

Target: human ether-à-go-go-related gene (hERG) potassium channel (human, UniProt Q12809)
Assay: primary screen, population patch clamp on CHO cells stably expressing hERG

human ether-à-go-go-related gene (hERG) potassium channel, sequence (Q12809 whole entry, looked up): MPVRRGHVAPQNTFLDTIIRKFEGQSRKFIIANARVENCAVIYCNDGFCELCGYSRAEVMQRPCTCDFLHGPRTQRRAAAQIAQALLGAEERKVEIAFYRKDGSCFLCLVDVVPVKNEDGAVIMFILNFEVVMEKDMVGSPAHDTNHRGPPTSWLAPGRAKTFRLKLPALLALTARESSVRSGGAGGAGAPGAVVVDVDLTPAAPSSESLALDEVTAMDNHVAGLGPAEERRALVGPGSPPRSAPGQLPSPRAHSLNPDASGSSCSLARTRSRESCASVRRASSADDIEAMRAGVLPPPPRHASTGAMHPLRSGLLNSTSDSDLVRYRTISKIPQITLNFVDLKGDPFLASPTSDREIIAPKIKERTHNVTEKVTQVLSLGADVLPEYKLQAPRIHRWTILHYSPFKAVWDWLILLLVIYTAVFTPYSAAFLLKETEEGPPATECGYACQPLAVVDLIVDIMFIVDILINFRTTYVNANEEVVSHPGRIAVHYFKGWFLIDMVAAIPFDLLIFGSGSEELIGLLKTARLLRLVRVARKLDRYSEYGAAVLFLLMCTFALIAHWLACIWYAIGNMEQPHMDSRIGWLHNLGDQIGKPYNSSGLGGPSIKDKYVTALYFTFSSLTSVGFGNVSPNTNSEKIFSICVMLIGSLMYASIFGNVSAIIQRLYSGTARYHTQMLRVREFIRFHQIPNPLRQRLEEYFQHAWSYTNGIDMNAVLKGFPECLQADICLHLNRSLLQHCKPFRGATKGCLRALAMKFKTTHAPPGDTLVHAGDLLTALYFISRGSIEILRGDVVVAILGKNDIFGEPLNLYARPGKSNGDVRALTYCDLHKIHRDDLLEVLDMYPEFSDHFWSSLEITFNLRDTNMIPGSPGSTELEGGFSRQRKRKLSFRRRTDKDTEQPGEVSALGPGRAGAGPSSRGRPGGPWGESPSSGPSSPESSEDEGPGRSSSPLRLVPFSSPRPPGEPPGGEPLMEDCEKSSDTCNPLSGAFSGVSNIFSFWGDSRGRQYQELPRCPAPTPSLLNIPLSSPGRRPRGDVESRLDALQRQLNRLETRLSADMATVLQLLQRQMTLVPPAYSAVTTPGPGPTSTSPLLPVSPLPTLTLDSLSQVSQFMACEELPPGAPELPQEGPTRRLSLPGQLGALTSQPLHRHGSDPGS

SMILES	hERG current change (%, negative = inhibition) at 1uM [%]
COc1ccc(C(C)=O)c(Oc2ccc(S(=O)(=O)N3CCOCC3)cn2)c1	-1.82
Cc1cccc(NC(=O)c2cccc(NC3=NC4CS(=O)(=O)CC4S3)c2)c1 (stereo not shown)	9.52
O=C(Cc1ccccn1)c1ccc(O)cc1O	12.6
COc1ccccc1CNC(=O)C(=O)Nc1nccs1	14.2
COc1ccc(CNc2cc([N+](=O)[O-])ccc2OC)cc1	2.46
C=C(c1ccc(OCCO)cc1)c1ccc(OCCO)cc1	16.6
Cn1cnnc1SCC(=O)NN1C(=O)NC(C)(c2ccccc2)C1=O (stereo not shown)	5.33
COc1cc(/C=C/C2=NC(=O)C(C)(C)O2)ccc1O	12.2
C=CCNc1nnc(SCC(=O)Nc2ccccc2OC)c2ccccc12	13.3
O=C(CSc1ccc2nnc(-c3cccc(F)c3)n2n1)NCC1CCCO1 (stereo not shown)	-10.5
Cc1ccc(S(C)(=O)=NC(=O)NC(=O)c2c(F)cccc2Cl)cc1 (stereo not shown)	9.61
COc1ccc2sc(-c3ccccc3OC)c(C#CCCO)c2c1	12.2
CCCNC(=O)C(Cc1ccc(C(F)(F)F)cc1)NC(=O)c1ccc(C#N)cc1 (stereo not shown)	-5
NC(=O)[C@@H]1CCCN1C(=O)c1ccc2nc(Cc3ccccc3F)oc2c1	16.7
O=C1C=C(c2ccc(F)nc2)CCC1	10.2
Cc1csc(SC(C)C(=O)Nc2ccc(Cl)cn2)n1 (stereo not shown)	3.3
CCc1cccc(C)c1NC(=S)NCCc1c(C)[nH]c2ccc(C)cc12	11.3
O=C(Nc1ccc(S(=O)(=O)Nc2ncccn2)cc1)c1ccc(F)c(S(=O)(=O)N2CCOCC2)c1	6.95
O=C(c1cccs1)N1CCN=C1SCc1ccc(F)cc1	9.02
CCOc1ccc(-c2cc(C(=O)OC)nc3c2c(=O)n(C)c(=O)n3C)cc1	5.32
CCCCN(CC)C(=O)CN1C(=O)c2ccccc2C1=O	5.7
CC(C)(C)OC(=O)N1CCC(NC(=O)c2nc[nH]c2C(=O)NC2CCN(C(=O)OC(C)(C)C)CC2)CC1	12

SMILES	hERG current change (%, negative = inhibition) at 1uM [%]
O=C(CN1N=C(c2ccccc2)CCC1=O)NCCN1CCc2ccccc2C1	2.66
CC(C)=CCc1c2c(c(O)c3c(=O)c4c(oc13)-c1cc(O)c(O)cc1OC4C=C(C)C)C=CC(C)(C)O2 (stereo not shown)	12.6
CCOc1ccc(C2N(c3ccc(OC)cc3)C(=O)C3CCCN32)cc1OC (stereo not shown)	9.87
O=[N+]([O-])c1cccc(N=NN(CCO)c2cccc([N+](=O)[O-])c2)c1	11.7
CC(C)(C)C(=O)Nc1ccc(C(=O)N/N=C/c2ccccc2OC(=O)c2ccc(Cl)cc2)cc1	9.38
Cc1cccn2c(=O)c3cc(C(=O)NCCc4ccccc4)c(=N)n(CCCn4ccnc4)c3nc12	-61.3
CN(C)CCCNc1ncnc2oc(-c3ccccc3)c(-c3ccccc3)c12	-16.7
Cc1nn2c(c1-c1ccc(Cl)cc1)N=C(c1ccco1)CC2c1ccccc1 (stereo not shown)	16.8
Cc1ccc(OCC(=O)NC(C)c2ccccc2)cc1C (stereo not shown)	8.12
CCC1CCCCN1C(=O)C(=O)c1cn(CC(=O)N(CC)CC)c2ccccc12 (stereo not shown)	8.26
CS(=O)(=O)N1CCN(c2ccc(NC(=O)Cc3ccccc3)cc2)CC1	8.67
[Cl-].c1ccc(CC[C@@H]2CC[C@@H](CCc3ccccc3)N2)cc1	-32.6
CN1CCN(C2CC(=O)N(CCc3ccccc3)C2=O)CC1 (stereo not shown)	-0.229
C=CCOc1ccccc1CN1CCCCCC1	11.6
Cc1nnc(NC(=O)CCC(=O)NCc2cccs2)s1	12.5
COc1ccc(C(=O)/C=C/c2ccc(OC)c(CN3CCOCC3)c2)cc1	-2.3
COc1ccccc1-c1cn[nH]c1-c1ccc(OCc2ccccc2)cc1O	7.06
COc1ccc(N2CC(C(=O)Nc3nc(-c4ccccc4)c(C(C)=O)s3)CC2=O)c(OC)c1 (stereo not shown)	8.95
COc1cc2c(cc1OC)C(COc1ccc(C(C)C)cc1)NCC2 (stereo not shown)	10.6
O=C(NOC(=O)c1c(F)cccc1Cl)c1ccc(Cl)c(Cl)c1	15.6
c1ccc(CCNc2nc3ccccc3s2)cc1	2.81
COCCN(C(=O)CSc1nnc(-c2ccccc2F)n1N)c1c(N)n(Cc2ccccc2)c(=O)[nH]c1=O	7.86

SMILES	hERG current change (%, negative = inhibition) at 1uM [%]
COc1cc(/C=C2\SC(N)=NC2=O)ccc1OCC(=O)Nc1ccc(C)cc1	2.92
COc1cccc(C2C(C(C)=O)=C(O)C(=O)N2Cc2ccco2)c1 (stereo not shown)	22.3
OCCc1ccc(O)cc1	11.2
Cc1nnc(NC(=O)c2ccc3ccccc3c2)s1	15.7
COc1ccc(S(=O)(=O)N(CC(=O)NN=C2CCN(C)CC2)c2cc(Cl)ccc2OC)cc1OC	11.7
O=C(OCc1cnc(Cl)s1)c1cccs1	16.8
COc1ccc(Cl)cc1N(C(=O)Nc1cccc(Cl)c1)C1=NCC(C)S1 (stereo not shown)	11.1
COCCOc1cc(NC(=O)c2ccccc2)c(Cl)cc1Cl	4.74
CCN(CCCNC(=O)CCNC(=O)Cn1cnc2ccccc2c1=O)c1ccccc1	10.1
Cc1ccc(N(C(=O)c2snc(C(N)=O)c2N)C(CC(C)C)C(=O)NC2CCCC2)cc1 (stereo not shown)	-2.22
O=C(Cc1ccccc1F)Nc1cc(Cl)ccc1N1CCCC1	11
COc1ccc(CCC(=O)NCCNC(=O)CCc2ccc(OC)cc2)cc1	14.9
CCOc1ccc(C(Nc2ccc(C)cc2)P2(=O)OCC(C)(C)CO2)cc1 (stereo not shown)	13.7
COC(CNC(=O)C1CC(=O)N(CCc2ccc(C)cc2)C1)OC (stereo not shown)	12.8
O=[N+]([O-])C(/C=C(/Cl)[N+](=O)[O-])=C(N1CCCCC1)N1CCCCC1	12.6
O=S(=O)(c1ccc(NCCOc2ccccc2)nc1)N1CCCC1	11
O=C(/C=C/c1cccc([N+](=O)[O-])c1)NCCN1CCOCC1	14.4
N#Cc1c(NC(=O)c2ccc(-c3ccccc3[N+](=O)[O-])o2)sc2c1CCCC2	7.33
O=C(NCCC(c1ccccc1)c1ccccc1)c1cccs1	19.4
OC[C@H]1O[C@@H](Oc2cc(O)cc(/C=C/c3ccc(O)cc3)c2)[C@H](O)[C@@H](O)[C@@H]1O	11.6
COc1ccc(C2C(O)C(c3c[nH]c4ccccc34)=NN2C(=O)CCl)cc1 (stereo not shown)	8.64
O=C1c2oc3ccccc3c(=O)c2C(c2cccc(F)c2)N1CCCO (stereo not shown)	2.61

SMILES	hERG current change (%, negative = inhibition) at 1uM [%]
NS(=O)(=O)c1ccc(C(=O)Nc2ccc(-c3nc4cccnc4s3)cc2)cc1	7.63
CC(=O)Nc1ccc(S(=O)(=O)Nc2nc3n(n2)C(c2ccccc2)CC(=O)N3)cc1 (stereo not shown)	10.1
N#Cc1ccc(C2=CC(=O)C[C@H](c3ccc(F)cc3)C2)cc1	-61.4
CCOC(=O)c1ccc(-n2[nH]c(-c3ccccc3)cc2=O)cc1	12.5
CCOc1ccc(OCCCC(=O)N(C)CC(=O)Nc2ccc(N3CCOCC3)cc2)cc1	7.24
COc1ccc(NC(=O)CSc2n[nH]c(-c3ccco3)n2)cc1	3.52
O=C(CCc1nnc(CCCc2ccccc2)o1)NCCN1CCOC1=O	16
Cc1cccc(OCCCC(=O)Nc2ccc(N3CCOCC3)cc2)c1	14.2
Cc1cc(-n2cnc(-c3cn(C)nc3C)n2)no1	15.3
Cc1ccc(-c2ccc(CCC(=O)O)n2-c2ccc(O)cc2)cc1	15
Cc1nc(SCc2ccccc2)[nH]c(=O)c1CC(=O)OCC(C)C	15.6
CCCC(=O)OCCNc1cc(Sc2nc3ccccc3[nH]2)c2nonc2c1[N+](=O)[O-]	9.73
O=C(NCCc1ccccc1)C1CCCN1S(=O)(=O)c1ccc(F)cc1 (stereo not shown)	11
COc1cc(C(=O)OC(C)CN2CCCCC2)cc(OC)c1OC.Cl (stereo not shown)	11.2
O=C(NCc1cccnc1)c1ccc(NC(=O)c2ccc([N+](=O)[O-])cc2)cc1	12.3
COCCN1C(=O)N[C@@H](c2cccs2)C(C(C)=O)=C1C	12.8
Cc1ccc(NC(=O)C2CC(=O)N(C(C)c3ccccc3)C2)cc1 (stereo not shown)	7.39
O=C(NCC1CCN(c2ccc(S(=O)(=O)N3CCOCC3)cc2)CC1)c1ccc(Cl)cc1	-30.5
CCOP(=O)(OCC)C1(O)C(=O)Nc2ccccc21 (stereo not shown)	2.09
COc1ccc(S(=O)(=O)/C(C#N)=C/Nc2cccc(OC)c2)cc1	17.4
CCC(=O)Nc1ccc(Cl)c(NC(=O)c2ccc(Br)o2)c1	11.5
CCCNS(=O)(=O)c1ccc(CCC(=O)N2CCC(C)CC2)cc1	9.84
